{"source": "the supplement of paper PMC10126150", "note": "Sequences with one replicate were seen in a single cluster, so their values are uncertain.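 Further: ATP exposure 15 min at 22 °C before imaging.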"}
{"test_system": "ATP", "experiment": "switch fluorescence ratio, 500 uM ATP over buffer (Cy3 cluster intensity, sum of 5 cycles each) (fold (ratio)); higher = stronger signal-on switching upon ATP binding; sequences stand for … in TCGTCGGCAGCGTCAGATGTGTATAAGAGACAGTTTTTTTTTTTTTTTTTTTTTTTTT…TC", "details": "aptamer strand: ATP DNA aptamer (quencher-CACCTGGGGGAGTATTGCGGAGGAAGG + anchor), 100 nM annealed; ATP concentration: 500 uM; one replicate", "in_short": "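Cy3-labelled switching-strand clusters on a modified Illumina MiSeq flow-cell were annealed to 100 nM quencher-labelled ATP aptamer and imaged first in selection buffer, then after 15 min with 500 uM ATP at 22 °C. NaOH stripping and re-annealing separated each of five buffer/ATP cycles, and clusters outside 100-1000 RFU were excluded. The fluorescence ratio sums target-cycle Cy3 intensity over buffer-cycle Cy3 intensity per cluster and averages it per switch-domain sequence.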"}
{"sequence": "CGTGAATGTG", "switch fluorescence ratio": 0.928}
{"sequence": "CGTGACAACG", "switch fluorescence ratio": 1.03}
{"sequence": "CGTGACGTCA", "switch fluorescence ratio": 0.978}
{"sequence": "CGTGACTCTT", "switch fluorescence ratio": 0.936}
{"sequence": "CGTGAGCGTC", "switch fluorescence ratio": 1.01}
{"sequence": "CGTGAGTTAT", "switch fluorescence ratio": 1.02}
{"sequence": "CGTGATAGCA", "switch fluorescence ratio": 1}
{"sequence": "CGTGATGACT", "switch fluorescence ratio": 0.993}
{"sequence": "CGTGATGGTC", "switch fluorescence ratio": 1.07}
{"sequence": "CGTGATGTGG", "switch fluorescence ratio": 1.03}
{"sequence": "CGTGCCCACT", "switch fluorescence ratio": 1.02}
{"sequence": "CGTGCGAGAT", "switch fluorescence ratio": 1.05}
{"sequence": "CGTGCGATGG", "switch fluorescence ratio": 1.19}
{"sequence": "CGTGCGCCGG", "switch fluorescence ratio": 1.04}
{"sequence": "CGTGCGCCTA", "switch fluorescence ratio": 1.08}
{"sequence": "CGTGCTAGT", "switch fluorescence ratio": 0.961}
{"sequence": "CGTGCTATGG", "switch fluorescence ratio": 1.04}
{"sequence": "CGTGCTCGGG", "switch fluorescence ratio": 1.05}
{"sequence": "CGTGCTCTGC", "switch fluorescence ratio": 1.03}
{"sequence": "CGTGGAACAA", "switch fluorescence ratio": 1.04}
{"sequence": "CGTGGCGAAA", "switch fluorescence ratio": 1.21}
{"sequence": "CGTGGCGGCA", "switch fluorescence ratio": 0.985}
{"sequence": "CGTGGGGTAT", "switch fluorescence ratio": 1}
{"sequence": "CGTGTATTTA", "switch fluorescence ratio": 0.987}
{"sequence": "CGTGTCCGTA", "switch fluorescence ratio": 1.05}
{"sequence": "CGTGTCCTTA", "switch fluorescence ratio": 0.972}
{"sequence": "CGTGTCTGCG", "switch fluorescence ratio": 0.987}
{"sequence": "CGTGTGAGCT", "switch fluorescence ratio": 1.01}
{"sequence": "CGTGTGCGGG", "switch fluorescence ratio": 0.975}
{"sequence": "CGTGTGGTCA", "switch fluorescence ratio": 0.961}
{"sequence": "CGTGTTTAAC", "switch fluorescence ratio": 0.979}
{"sequence": "CGTTAAAAT", "switch fluorescence ratio": 0.978}
{"sequence": "CGTTAAATAT", "switch fluorescence ratio": 1.02}
{"sequence": "CGTTAACCGT", "switch fluorescence ratio": 1.03}
{"sequence": "CGTTAATCAT", "switch fluorescence ratio": 0.988}
{"sequence": "CGTTAATTTG", "switch fluorescence ratio": 0.931}
{"sequence": "CGTTACACGC", "switch fluorescence ratio": 1.02}
{"sequence": "CGTTACCCCA", "switch fluorescence ratio": 1.13}
{"sequence": "CGTTACCGCC", "switch fluorescence ratio": 1.11}
{"sequence": "CGTTACCGTT", "switch fluorescence ratio": 0.989}
{"sequence": "CGTTACGAA", "switch fluorescence ratio": 1.07}
{"sequence": "CGTTACGACC", "switch fluorescence ratio": 1.5}
{"sequence": "CGTTACTACT", "switch fluorescence ratio": 1.04}
{"sequence": "CGTTACTGTG", "switch fluorescence ratio": 0.97}
{"sequence": "CGTTAGGTTT", "switch fluorescence ratio": 0.997}
{"sequence": "CGTTCAAGCA", "switch fluorescence ratio": 1.05}
{"sequence": "CGTTCAAGGG", "switch fluorescence ratio": 0.985}
{"sequence": "CGTTCAATCG", "switch fluorescence ratio": 0.991}
{"sequence": "CGTTCCAAAG", "switch fluorescence ratio": 1.12}
{"sequence": "CGTTCCATCG", "switch fluorescence ratio": 1.03}
{"sequence": "CGTTCCTGGA", "switch fluorescence ratio": 0.978}
{"sequence": "CGTTCGATTG", "switch fluorescence ratio": 1.01}
{"sequence": "CGTTCGCTGA", "switch fluorescence ratio": 1.41}
{"sequence": "CGTTCGGGAC", "switch fluorescence ratio": 1.22}
{"sequence": "CGTTCGTACA", "switch fluorescence ratio": 1.1}
{"sequence": "CGTTCTTACA", "switch fluorescence ratio": 1.02}
{"sequence": "CGTTGAAAAA", "switch fluorescence ratio": 0.999}
{"sequence": "CGTTGACTGG", "switch fluorescence ratio": 1.02}
{"sequence": "CGTTGGGGA", "switch fluorescence ratio": 1.01}
{"sequence": "CGTTGTAAGC", "switch fluorescence ratio": 1.03}
{"sequence": "CGTTGTAGAG", "switch fluorescence ratio": 0.985}
{"sequence": "CGTTGTGGGC", "switch fluorescence ratio": 0.99}
{"sequence": "CGTTGTTGAT", "switch fluorescence ratio": 0.97}
{"sequence": "CGTTTACGG", "switch fluorescence ratio": 0.93}
{"sequence": "CGTTTATGAC", "switch fluorescence ratio": 1.04}
{"sequence": "CGTTTTAGCA", "switch fluorescence ratio": 1.02}
{"sequence": "CGTTTTGCGC", "switch fluorescence ratio": 1.04}
{"sequence": "CGTTTTGCGT", "switch fluorescence ratio": 0.983}
{"sequence": "CGTTTTTACC", "switch fluorescence ratio": 0.97}
{"sequence": "CTAAAGGGCC", "switch fluorescence ratio": 1.03}
{"sequence": "CTAAATGATC", "switch fluorescence ratio": 1.08}
{"sequence": "CTAAATGTCG", "switch fluorescence ratio": 0.913}
{"sequence": "CTAAATTGAG", "switch fluorescence ratio": 0.962}
{"sequence": "CTAACAAGGT", "switch fluorescence ratio": 1.04}
{"sequence": "CTAACAGGAG", "switch fluorescence ratio": 1.01}
{"sequence": "CTAACATCTA", "switch fluorescence ratio": 1.01}
{"sequence": "CTAACCCCTT", "switch fluorescence ratio": 1.15}
{"sequence": "CTAACGAACG", "switch fluorescence ratio": 1.16}
{"sequence": "CTAAGAAGC", "switch fluorescence ratio": 0.952}
{"sequence": "CTAAGATAAA", "switch fluorescence ratio": 1.02}
{"sequence": "CTAAGATACG", "switch fluorescence ratio": 1.22}
{"sequence": "CTAAGCGCGG", "switch fluorescence ratio": 0.988}
{"sequence": "CTAAGCTAGT", "switch fluorescence ratio": 1.22}
{"sequence": "CTAAGTAATC", "switch fluorescence ratio": 1.44}
{"sequence": "CTAAGTCTA", "switch fluorescence ratio": 0.982}
{"sequence": "CTAATAGCGG", "switch fluorescence ratio": 0.972}
{"sequence": "CTAATAGGTA", "switch fluorescence ratio": 1.02}
{"sequence": "CTAATCGTAC", "switch fluorescence ratio": 1.13}
{"sequence": "CTAATTACAC", "switch fluorescence ratio": 1.05}
{"sequence": "CTACAACGTG", "switch fluorescence ratio": 0.995}
{"sequence": "CTACAATAGG", "switch fluorescence ratio": 1.05}
{"sequence": "CTACAGAAGT", "switch fluorescence ratio": 1.04}
{"sequence": "CTACAGGAAC", "switch fluorescence ratio": 1.05}
{"sequence": "CTACAGGAGT", "switch fluorescence ratio": 1.02}
{"sequence": "CTACATACTA", "switch fluorescence ratio": 1.38}
{"sequence": "CTACCGACAT", "switch fluorescence ratio": 1.31}
{"sequence": "CTACCGTGCC", "switch fluorescence ratio": 1.35}
{"sequence": "CTACCTCAGG", "switch fluorescence ratio": 2.03}
{"sequence": "CTACGAAGCC", "switch fluorescence ratio": 1.47}
{"sequence": "CTACGGCAGC", "switch fluorescence ratio": 1.51}
